Measurements as given in the supplement of paper PMC4166925.
± gives the standard deviation of the averaged measurements. Whole data set: some 33,000 sequences, median “E-score (dimensionless, -0.5 to 0.5)” near -0.049, cut for the highest 2% near 0.37. Some of the results follow.

system: T1, PmTbr T-box DNA-binding domain (GST fusion); test: PBM E-score of 8-mer (E-score (dimensionless, -0.5 to 0.5)); Tbr is Tbrain of the sea star Patiria miniata (Pm) or the sea urchin Strongylocentrotus purpuratus (Sp); higher = stronger binding preference; most listed sequences are background and not binding sites; conditions: the construct has about 5 more residues each side
T1 sequence: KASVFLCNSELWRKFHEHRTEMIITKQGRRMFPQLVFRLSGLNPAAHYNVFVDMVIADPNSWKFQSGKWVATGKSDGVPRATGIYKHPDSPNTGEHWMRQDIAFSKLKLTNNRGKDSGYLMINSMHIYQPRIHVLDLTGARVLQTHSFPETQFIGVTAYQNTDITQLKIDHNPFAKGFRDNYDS
Summary of the method: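 GST-fused Tbr T-box DNA-binding domains (the whole T-box plus about five flanking residues) were expressed in BL21 E. coli at 20 °C and purified by glutathione affinity chromatography. Universal Agilent oligonucleotide arrays were made double-stranded by primer extension, incubated with 200 nM protein in PBS (pH 7.5), then scanned and quantified. Every ungapped 8-mer was scored from probe intensities. The Universal PBM Analysis Suite gave each word an enrichment E-score, averaged over duplicate arrays.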

Sequence	PBM E-score of 8-mer
AGGGTTGG	-0.175 ± 0.032
CAATTTTA	-0.0591 ± 0.15
TACCGATA	-0.13 ± 0.018
CTTCGCAC	0.454 ± 0.019
TGGAACAA	-0.247 ± 0.032
AATGCGCA	-0.0568 ± 0.095
AGTTACGG	-0.239 ± 0.0068
GTCTCATA	-0.0732 ± 0.012
CAGACAGC	0.0475 ± 0.042
GTGCGTAA	0.0926 ± 0.027
ACAAGAGC	0.0118 ± 0.045
ATGTATTG	0.0546 ± 0.12
AATTCCTG	-0.172 ± 0.024
AACAATAC	-0.091 ± 0.02
TCACCACA	0.204 ± 0.054
ATTACAAA	-0.159 ± 0.11
CAGGTATC	0.0923 ± 0.0027
CATTTTTC	-0.00057 ± 0.056
AGACCCTA	-0.257 ± 0.036
CAAGCCAC	0.042 ± 0.037
AAGTCTTC	-0.0063 ± 0.08
AAATACGC	0.0362 ± 0.0033
ATTCAGCG	-0.0915 ± 0.02
ACAATTCG	0.211 ± 0.022
AGATGTTC	0.0612 ± 0.07

Sequence	PBM E-score of 8-mer
GACCCACA	-0.123 ± 0.074
AAATCCGC	0.111 ± 0.018
CGGCACAA	-0.139 ± 0.13
ATACGAAA	-0.073 ± 0.034
CCGCCCGA	0.0216 ± 0.052
AAATCGAG	-0.00044 ± 0.0066
ACCAGGGG	0.0176 ± 0.0056
GGTTTGTA	-0.229 ± 0.036
ACTAATAC	0.034 ± 0.01
CGGCCTTC	-0.147 ± 0.021
CCATGTAC	-0.0752 ± 0.0069
CGCTGCAC	0.129 ± 0.023
GCCGTAAC	-0.075 ± 0.028
CTGTTAAA	0.23 ± 0.015
CAGCCGGA	-0.00386 ± 0.12
AATACTGC	-0.245 ± 0.043
GCCCACAA	-0.109 ± 0.0087
ACGGCACC	0.258 ± 0.01
ACTCCTTA	0.058 ± 0.053
CATTCCTA	-0.31 ± 0.012
TCGAATCA	0.103 ± 0.044
AAGTATAA	-0.154 ± 0.16
GTGCCGCA	0.173 ± 0.018
TCATTCCA	-0.257 ± 0.065
AGCTCGAA	0.0841 ± 0.048

Sequence	PBM E-score of 8-mer
CAATGGCG	0.0732 ± 0.042
TCGAGGCA	-0.0529 ± 0.096
AAAAGCGC	0.193 ± 0.066
GAAATGGC	0.0945 ± 0.033
ACCTAAGT	0.0966 ± 0.0054
AACTAACC	0.0484 ± 0.11
ATTGTCAA	0.248 ± 0.039
CGAGAGCC	0.018 ± 0.017
CAGTTACC	-0.147 ± 0.01
GATAAATC	-0.0393 ± 0.073
ACGGGACT	-0.152 ± 0.013
ACGCCGCA	0.069 ± 0.059
TCCCTCCA	-0.0787 ± 0.00028
CAGCGGTA	-0.061 ± 0.018
CATAGAAG	-0.156 ± 0.11
AGCCTAGA	-0.122 ± 0.045
CGTAGGGC	-0.154 ± 0.0065
AATTGACA	0.296 ± 0.065
TGCTCACA	0.306 ± 0.011
AGTGTTTC	0.134 ± 0.066
AGTTGAAC	0.00736 ± 0.035
ATACTCGG	-0.0427 ± 0.15
AAGAATAC	-0.123 ± 0.032
GACAATTA	0.0502 ± 0.026
ACGAGGCG	0.246 ± 0.048

Sequence	PBM E-score of 8-mer
CCGAGGAG	0.0278 ± 0.017
CGGAGTAG	-0.217 ± 0.066
AGATAGCT	-0.0197 ± 0.1
ACTGTGTC	0.192 ± 0.03
ACGAACAA	-0.00251 ± 0.029
AATTAGGG	-0.114 ± 0.066
CGGGGACG	-0.0777 ± 0.013
AGTGTAAC	0.264 ± 0.072
GAAGAATA	-0.147 ± 0.083
GCCACACA	0.279 ± 0.031
CACGCACA	0.106 ± 0.087
AGGGAGCC	-0.103 ± 0.015
ACAATCAC	0.2 ± 0.034
CAATGGTA	-0.00848 ± 0.0096
CTGGCTAA	-0.0157 ± 0.044
GCAGGCGC	0.263 ± 0.0029
GCGCACGC	0.117 ± 0.027
ATTCGAAC	-0.16 ± 0.013
GACTCTGA	-0.0201 ± 0.024
GTCGGGGA	-0.0624 ± 0.0023
TGGATGAA	-0.246 ± 0.0051
ACTTACGC	0.176 ± 0.01
CGCCCCCG	-0.06 ± 0.065
AAGGCCCC	-0.218 ± 0.0061
ACCAACCG	-0.0999 ± 0.013

Sequence	PBM E-score of 8-mer
GCGAGGCC	0.144 ± 0.053
GACCAGAA	-0.0347 ± 0.081
GGGCCTTA	-0.208 ± 0.073
GCCGGGCC	-0.107 ± 0.06
ACGAATAA	-0.0186 ± 0.036
AGCCCCCA	-0.224 ± 0.029
TCCTTGCA	0.0104 ± 0.024
AGGTCTCG	0.0121 ± 0.033
GTTTCGAA	-0.0129 ± 0.14
GCAGAACA	-0.158 ± 0.046
GTACGAAC	-0.0755 ± 0.01
AGATATCC	-0.168 ± 0.052
AAATGATT	-0.165 ± 0.081
ATGTCAGA	-0.162 ± 0.069
ACGATCGC	0.281 ± 0.015
AGCGAACA	0.0494 ± 0.02
CTACTGGA	-0.0182 ± 0.054
TCCGTGAA	0.109 ± 0.033
GTAAAGGA	-0.211 ± 0.036
CACTTGAG	0.222 ± 0.044
ACCCCCTA	-0.0741 ± 0.0084
AGGGACAA	-0.108 ± 0.07
TAAGAGCA	-0.326 ± 0.022
GCTTAGAC	-0.21 ± 0.085
ATGAGTGG	-0.0184 ± 0.077

Sequence	PBM E-score of 8-mer
CCAAGGCC	-0.19 ± 0.025
GCGAATCA	0.176 ± 0.023
CCCCTGGA	-0.186 ± 0.013
CAATAAAG	-0.0979 ± 0.06
ACGCGCAT	0.0257 ± 0.033
CACGAACA	0.0282 ± 0.043
CGCCGGGA	-0.0656 ± 0.061
GCGCTCCC	-0.133 ± 0.028
CATGTATA	-0.0384 ± 0.0011
ATGTTTGA	0.102 ± 0.0089
TCCTGGCA	0.0369 ± 0.053
ATAACGTA	-0.0536 ± 0.021
ATGCTGTG	0.0432 ± 0.073
CAGATCGC	0.216 ± 0.043
ATATCCCC	-0.0933 ± 0.088
GGGTCACC	0.00244 ± 0.035
AGCGGGAG	0.0556 ± 0.073
AGGGCTAC	-0.0845 ± 0.093
AGCAGCTC	-0.168 ± 0.034
ATGGGTCC	-0.314 ± 0.039
CTTGGTCA	-0.146 ± 0.035
GCACGCTA	0.11 ± 0.054
GCGGAAGA	0.0252 ± 0.071
CGCTCATC	-0.212 ± 0.037
ATTAGGTG	0.374 ± 0.0089

Sequence	PBM E-score of 8-mer
ACAGCTAA	0.119 ± 0.017
ACCTGGTA	0.122 ± 0.036
GAACAAGC	-0.134 ± 0.045
ATCATTAG	-0.253 ± 0.028
GAAAAGCC	-0.0639 ± 0.09
ATCATACA	-0.0972 ± 0.048
TATGGGCA	-0.144 ± 0.0034
CGCGTGTC	0.24 ± 0.041
TGTTTAAA	-0.221 ± 0.076
GCGGCCCC	-0.0979 ± 0.012
AGGTCAGG	-0.109 ± 0.022
ATCTGGAC	-0.0994 ± 0.061
ATTTTAGC	0.291 ± 0.035
GGATTTCA	-0.104 ± 0.038
GGTATTCA	-0.1642 ± 0.0013
CACCTGTC	0.4274 ± 0.0023
AGCACTCC	0.0238 ± 0.034
ACAGGGCA	-0.0494 ± 0.027
GTCTTATA	-0.0862 ± 0.057
CAGATAAG	-0.113 ± 0.0039
GCGCTGCA	0.0344 ± 0.022
GTCCCGCA	-0.0582 ± 0.07
